Among all 350,000 compounds or so, about 9,900 (2.8%) were called active. The inconclusive results got no clear call from the source; some entries with a clear call stand among them for comparison. The call rests on the fitted dose curve; in most records, active means well fitted activation curve with a large enough effect; inconclusive means small, poorly fitted or top-dose-only effect; inactive means no such curve, though single readings can be large or run the other way. Potencies of inconclusive entries are left out as doubtful fits.
Assay: A quantitative high throughput screen for small molecules that induce DNA re-replication in MCF 10a normal breast cells. Further: nearly all actives have a fitted effect of over 50% in size. On activity, positive = re-replication: % of control where 0% means no effect.
Conditions: MCF 10A DNA re-replication, Hoechst nuclear intensity, 48 h; activity, positive = re-replication: at 46.1 µM (top of the series)
Potency means the concentration at half of the fitted maximal effect; tags describe the fitted curve by direction and shape.

With CCOC(=O)N1CCC(NC(=O)c2cnn3c2NC(c2ccco2)CC3C(F)(F)F)CC1 (stereo not drawn) as the compound, how does the Potency read?
Its Potency is inconclusive [activator, partial curve, poor fit].

With C=CCNc1ncnc2c1cnn2-c1cccc(C)c1 as the compound, how does the “activity, positive = re-replication” value read?
Its value is inactive: 8.53%.

Which Potency does the source give for Cc1ccc(Cn2c(C(C)Nc3nc(C)cs3)nc3cc(Cl)c(Cl)cc32)cc1 (stereo not drawn) here?
The Potency was inconclusive [activator, single point].

With O=C(N/N=C/c1ccc([N+](=O)[O-])o1)c1cn(-c2ccccc2)nc1-c1ccc(Cl)cc1 as the compound, how does the Potency read?
The Potency was inconclusive [activator, full curve].

For CCc1ccc2c(c1)C1(SC(NC(C)=O)=NN1C(C)=O)C(=O)N2C(C)C (stereo not drawn), which “activity, positive = re-replication” value is on record?
Its value is inactive: 0.745%.

Which Potency does the source give for CC(=O)c1ccccc1OCC(O)CN1CCN(CCN2C(=O)c3cccc4cccc(c34)C2=O)CC1 (stereo not drawn) here?
Its Potency is inconclusive [activator, single point].

With CCOC(=O)C1=C(C)OC(N)=C(C#N)C1c1cncc(-c2ccc(F)cc2)c1 (stereo not drawn) as the compound, how does the Potency read?
Its Potency is inconclusive [activator, single point].

With Cc1nn(-c2ccccc2)c(C)c1-c1ccccc1O as the compound, how does the Potency read?
Its Potency is inconclusive [activator, single point].

Which Potency does the source give for COc1ccc(C2=Nc3ccccc3OC2)cc1 here?
The Potency was inconclusive [activator, single point].

Which Potency does the source give for O=C(COC(=O)c1ccccn1)c1ccc([N+](=O)[O-])cc1 here?
The Potency was inconclusive [activator, single point].

Which Potency does the source give for CC(Nc1nc(-c2ccc(F)cc2)cs1)c1nc2cc(Cl)c(N3CCCCC3)cc2n1CCCO (stereo not drawn) here?
Its Potency is active: 20.6 µM.

With CC1(c2nnc(-c3cccc(Cl)c3)o2)CC(c2ccc(Br)cc2)=NO1 (stereo not drawn) as the compound, how does the Potency read?
Its Potency is inconclusive [activator, single point].

Which Potency does the source give for Cc1ccc2c(n1)sc1c(N)ncnc12 here?
Its Potency is inconclusive [activator, partial curve, poor fit].

For Cc1ccc(OCC(=O)NNC(=O)CSc2ncnc3sc(C)c(C)c23)cc1, which Potency is on record?
Its Potency is inconclusive [activator, partial curve, poor fit].

For CCCCNC(=O)CSc1nnc(-c2c[nH]c3ccccc23)n1CC1CCCO1 (stereo not drawn), which Potency is on record?
The Potency was inconclusive [activator, partial curve, poor fit].

Which Potency does the source give for CN(C)/C=N/c1c(C#N)cnn1-c1ccc(C(F)(F)F)cn1 here?
Its Potency is active: 14.6 µM.

Which “activity, positive = re-replication” value does the source give for CCC12CN(C(=O)c3ccc(C)cc3)CC(CC)(CN(C(=O)c3ccc(C)cc3)C1)C2=O here?
Its value is inactive: 1.98%.

With Cc1ccc(NC(=S)/N=C(\N)Nc2nc(C)c3cc(C)ccc3n2)c(C)c1 as the compound, how does the Potency read?
The Potency was inconclusive [activator, partial curve, poor fit].
